Data as given in US9789096B2, “Methods and compositions for selective and targeted cancer therapy” (Board of Regents of the University of Texas System, priority 2013, dated 2017).

Target: T1, p37 and p30 (SCD1) (Homo sapiens, UniProt O00767)
T1 sequence (O00767 1-359): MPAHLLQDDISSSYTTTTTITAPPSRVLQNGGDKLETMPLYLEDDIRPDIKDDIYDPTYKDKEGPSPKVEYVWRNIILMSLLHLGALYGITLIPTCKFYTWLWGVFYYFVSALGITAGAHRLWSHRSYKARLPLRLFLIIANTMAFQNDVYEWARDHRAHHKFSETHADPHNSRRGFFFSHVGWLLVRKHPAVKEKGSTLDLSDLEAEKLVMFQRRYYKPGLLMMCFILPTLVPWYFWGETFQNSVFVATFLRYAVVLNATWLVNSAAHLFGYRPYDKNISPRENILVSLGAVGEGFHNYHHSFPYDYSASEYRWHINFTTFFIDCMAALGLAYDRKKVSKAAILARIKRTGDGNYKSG
Experiment: Competition with SW208108 for covalent binding to p37 and p30 in H2122 cells
Conditions: band formed by SW208108 in the presence of a 10-fold excess of competitor

SMILES | Band Intensity Relative to DMSO
O=C(NCCc1ccc(O)cc1)NC(=O)c1ccc(Nc2ccccc2)cc1 [SW208562-1-A] | 3.7%
O=C(NCCc1ccc(O)cc1)NC(=O)c1ccc(C(=O)c2ccccc2)cc1 [SW208459-1-A] | 9.5% and 7.3%
COc1ccc(CCNC(=O)NC(=O)c2ccc(C(=O)c3ccccc3)cc2)cc1 [SW208222-1-A] | 46.4%
COc1ccc(CCNC(=O)C(=O)Nc2ccc(C)cc2F)cc1 [SW206883-1-A] | 74.7%
O=C(Nc1nc2ccccc2o1)c1ccc(C(=O)c2ccccc2)cc1 [SW208665-1] | 107.5%
O=C(Nc1nc2ccccc2[nH]1)c1ccc(C(=O)c2ccccc2)cc1 [SW208653-1] | 38.8%
COc1ccc(CCNC(=O)NC(=O)c2ccc(C(=O)c3ccc(OC)cc3)cc2)cc1 [SW208220-1-A] | 95.3%
COc1ccc(CCNC(=O)NC(=O)c2ccc(C(O)c3ccccc3)cc2)cc1 (stereo not shown) [SW208460-1-A] | 15.1%
COc1ccccc1C(=O)c1ccc(C(=O)NC(=O)NCCc2ccc(O)cc2)cc1 [SW208580-1-A] | 108.7%
COc1ccc(C(=O)c2ccc(NC(=O)C(=O)NCCc3ccc(O)cc3)cc2)cc1 [SW208117-1-A] | 4.7%
O=C(NCCc1ccc(O)cc1)NC(=O)c1ccc(COc2ccccc2)cc1 [SW208522-1-A] | 1.1%
COc1ccc(CCNC(=O)NC(=O)c2ccc(Oc3ccccc3)cc2)cc1 [SW208456] | 10.5%
COc1ccc(CCNC(=O)NC(=O)c2ccc(C(=O)NCc3ccccc3)cc2)cc1 [SW208412-1-A] | 51.2%
COc1ccc(CCNC(=O)C(=O)Nc2ccc(Cl)c(C#N)c2)cc1 [SW206959-1] | 22.4%
O=C(Nc1nc2ccc(O)cc2s1)c1ccc(C(=O)c2ccccc2)cc1 [SW202864-1] | 46.5%
COc1ccc(CCNC(=O)NC(=O)c2ccc(-c3ccccc3)cc2)cc1 [SW208393-1-A] | 72.4%
COc1ccc(CCNC(=O)NC(=O)c2ccc(COc3ccccc3)cc2)cc1 [SW208458-1-A] | 8.8% and 10.6%
O=C(NCCc1ccc(O)cc1)NC(=O)c1ccc(Oc2ccccc2)cc1 [SW208523] | 2.1%
COc1ccc(CCNC(=O)NC(=O)c2ccc(Nc3ccccc3)cc2)cc1 [SW208561-1-A] | 13.8%
COc1ccc(CCNC(=O)NC(=O)c2ccc(C(=O)N(C)C)cc2)cc1 [SW208455-1-A] | 103.8%
Cc1cccc(C(=O)c2ccc(C(=O)NC(=O)NCCc3ccc(O)cc3)cc2)c1 [SW208582-1-A] | 90.9%
COc1ccc(CCNC(=O)NC(=O)c2ccc(Cl)cc2)cc1 [SW208401-1-A] | 33.4%

“And” between values parts separate entries of the source, which are not always exact repeats. Equal values may be shown once.
